Data from the RNAGym collection of RNA variant scans (doi:10.1073/pnas.2313332121).
Variants at the background level are over-represented here.

B1: TPR 5TU (parent)
chain: GGAUCUUCUCGAUCUAACAAAAAAGACAAAUCUGCCACAAAGCUUGAGAGCAUCUUCGGAUGCAGAGGCGGCAGCCUUCGGUGGCGCGAUAGCGCCAACGUUCUCAACUAUGACACGCAAAACGCGUGCUCCGUUGAAUGGAGUUUAUCAUG

Variants of: B1
Assay: polymerase ribozyme fitness, log enrichment relative to wild type (log ratio); higher = more active; in vitro selection for triplet polymerase activity
Procedure, shortened: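 Each subunit of a heterodimeric triplet polymerase ribozyme was represented by a PCR-built, transcribed mutant library that underwent triplicate single-round in vitro selection with frozen incubation at −7 °C. Extended constructs were recovered by gel excision, streptavidin-bead capture and RT-PCR, and Illumina sequencing of input and output libraries kept genotypes with ≥10 input reads and ≥1 read per output. Fitness is the logarithm of genotype enrichment relative to wild-type enrichment, from inverse-variance-weighted replicate averages, with a logarithm base of 2.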

Row | Variant | polymerase ribozyme fitness (log ratio)
1 | GGAUCUUCUCGAUCUAACAAAAAAGACAAAUCUGCCACAAAGCUUGAGAGCAUAUUCGGAGGCAGAGGCGGCAGCCUUCGGUGGCGCGAUAGCGCCAACGUUCUCAACUAUGACACGCAAAACGCGUGCUCCGUUGAAUGGAGUUUAUCAUG | -1.82
2 | GGAUCUUCUCGAUCUAACAAAAAAGACAAAUCUGCCACAAAGCUUGAGAGCAUAUUCGGAUGCAGAGGCGGCAGCCUUCGGUGGCGCGAUAGCGCCAACGUUCUCAACUAUGACACGCAAAACGCGCGCUCCGUUGAAUGGAGUUUAUCAUG | -2.28
3 | GGAUCUUCUCGAUCUAACAAAAAAGACAAAUCUGCCACAAAGCUUGAGAGCAUAUUCGGAUGCAGAGGCGGCAGCCUUCGGUGGCGCGAUAGCGCCAACGUUCUCAACUAUGACACGCAAAACGCGUGCUCCGUUGAAUGGAGUUUACCAUG | -3.69
4 | GGAUCUUCUCGAUCUAACAAAAAAGACAAAUCUGCCACAAAGCUUGAGAGCAUGUUCGGCUGCAGAGGCGGCAGCCUUCGGUAGCGCGAUAGCGCCAACGUUCUCAUCUAUGACAAACAAAACGCAUGCUCCGUUGAAAGGAGUUUAUCAUG | ≤ -4.2
5 | GGAUCUUCUCGAUCUAACAAAAAAGACAAAUCUGCCACAAAGCUUGAGAGCAUGUUCGGAUGCCGAGGCGGCAGCCUUCGGUGGCGCGAUAGGGCCAACGUUCACAACUAUGACACGCAAAACGCGUGCUCCGUUGAAUGAAGGUUAUCAUG | ≤ -4.2
6 | GGAUCUUCUCGAUCUAACAAAAAAGACAAAUCUGCCACAAAGCUUGAGAGCAUGUUCGGAUGCAGAGGCGGCAGCCUUCGGUGGCGCGAUCGCGCCAACGUUCUCAACUAUGACACGCAAAACGCGUGCUCCGUUGAAAGGAGUUUAUCAUG | ≤ -4.2
7 | GGAUCUUCUCGAUCUAACAAAAAAGACAAAUCUGCCACAAAGCUUGAGAGCAUGUUCGGAUGCAGAGGCGGCAGCCUUCGGUGGCGCGAUGGCGCCAACGUUCUCAACUAUGACACGCAAAACGCGUGCUCCGUUGAAUGGAGUUUAUCAUG | -4.01
8 | GGAUCUUCUCGAUCUAACAAAAAAGACAAAUCUGCCACAAAGCUUGAGAGCAUGUUCGGAUGCAGAGGCGGCAGCCUUCGGUGGCGCGAUUGCGCCAACGUUCUCAACUAUGACACGCAAAACGCGUGCUCCGUUGAAUGGAGUUUAUCAUG | ≤ -4.2
9 | GGAUCUUCUCGAUCUAACAAAAAAGACAAAUCUGCCACAAAGCUUGAGAGCAUGUUCGGAUGCAGAGGCGGCAGCCUUCGGUGGCGCGAUAGCGCCUACGUUCUCCACUAUGACACGCAAAACGCGUGCUCCGUUGAAUGGAGUUUAUCAUG | -2.99
10 | GGAUCUUCUCGAUCUAACAAAAAAGACAAAUCUGCCACAAAGCUUGAGAGCAUGUUCGGAUGUAGAGGGGGCAGCCUUCGGUGGCGCGUUAGAGCCAACGUUCUCAACUAUGACACACACAACCCGUGCUCCGUUGAAUGGAGUUUAUCAUG | ≤ -4.2
11 | GGAUCUUCUCGAUCUAACAAAAAAGACAAAUCUGCCACAAAGCUUGAGAGCAUGUUCGGAUGCAGAGGCGGUAGCCUUCGGUGGCGCGAUAGCGCCAACGUUCUCAACUAUGACACGCAAAACGCGUGCUCCGUCGAAUGGAGUUUAUCAUG | ≤ -4.2
12 | GGAUCUUCUCGAUCUAACAAAAAAGACAAAUCUGCCACAAAGCUUGAGAGCAUGUUCGGAUGCAGAGGCGGCAGUCUUCGGUGGCGCGAUAGCGUCAACGUUCUCAACUAUGACACGCAAAACGCGUGCUCCGUUGAAUGGAGUUUCUCAUG | -3.31
13 | GGAUCUUCUCGAUCUAACAAAAAAGACAAAUCUGCCACAAAGCUUGAGAGCAUGUUCGGAUGCAGAGGCGGCAGCCUUUGGUGGCGCGAUAGCGCCAACGUUCUCAACUAUGACACGCAAAACGCGUGCUCCGUUGAAUGGAGUUUAUCAUG | ≤ -4.2
14 | GGAUCUUCUCGAUCUAACAAAAAAGACAAAUCUGCCACAAAGCUUGAGAGCAUGUUCGGAUGCAGAGGCGGCAGCCUUCGGUGGUGCGAUAGCGCGAACGUUCUCAACUAUCACACGCAAAACGCGUGCACCGUUGAAUGGGGUUUAUAAUG | ≤ -4.2
15 | GGAUCUUCUCGAUCUAACAAAAAAGACAAAUCUGCCACAAAGCUUGAGAGCAUGUUCGGAUGCAGAGGCGGCAGCCUUCGGUGGCGGGAUAGCGCCAACGUUAUCAACUAUGACACGCAAAACGCGUGGUCUGUUGAAUGGAGUUUAUCAUG | ≤ -4.2
16 | GGAUCUUCUCGAUCUAACAAAAAAGACAAAUCUGCCACAAAGCUUGAGAGCAUGUUCGGAUGCAGAGGCGGCAGCCUUCGGUGGCGUGAUAGCGAUAACGUUCUCAACUAUGACACGCAAAACGCGUGCUCCUUUGAAUGGAGUUUAUCAUG | ≤ -4.2
17 | GGAUCUUCUCGAUCUAACAAAAAAGACAAAUCUGCCACAAAGCUUGAGAGCAUGUUCGGAUGCAGAGGCGGCAGCCUUCGGUGGCGCGAUAGCGACAACGUUCUCAACUAUGACACGCAAAACGCGUGCUCCGUUGAAUGGAGUUUAUCAUG | -1.74
18 | GGAUCUUCUCGAUCUAACAAAAAAGACAAAUCUGCCACAAAGCUUGAGAGCAUGUUCGGAUGCAGAGGCGGCAGCCUUCGGUGGCGCGAUAGCGCUAACGUUCUCAACUAUGACACGCAAAACGCGUGCUCCGUUGAAUGGAGUUUAUCAUG | -1.33
19 | GGAUCUUCUCGAUCUAACAAAAAAGACAAAUCUGCCACAAAGCUUGAGAGCAUGUUCGAAUGCAGAGGCGGCAACCUUCGGUGGCGCUAUAGCGACAACGUUCUCAACUAUGACACGCAAAACGCGUGCUCCGUUGAAUGCAUUUUAUCAUG | ≤ -4.2
